Source: paper PMC4242493
Some of the results follow. The list includes weakly bound sequences.

Biological target: MaxL homodimer (UniProt P61244)
Assay: universal protein-binding microarray (PBM)
Conditions: PBS-based mixture, 10 nM His-tagged protein dimer, 2% milk, 200 ng/uL BSA, 50 ng/uL salmon testes DNA, 0.02% TX-100; detection with Alexa 488 anti-His …; high values mean tight binding; most listed sequences are background and not binding sites; double strand, one strand shown

Chain of UniProt P61244 (P61244 whole entry): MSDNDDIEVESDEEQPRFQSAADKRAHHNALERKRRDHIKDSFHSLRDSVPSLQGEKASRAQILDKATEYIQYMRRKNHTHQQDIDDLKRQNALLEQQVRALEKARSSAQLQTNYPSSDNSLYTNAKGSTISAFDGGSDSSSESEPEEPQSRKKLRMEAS

| Sequence | binding signal (normalized occupancy) |
| --- | --- |
| ACTCAAAA | 0.0763 |
| TAAAAGCA | 0.0757 |
| ACGAACAC | 0.0784 |
| ACCCCGCC | 0.0798 |
| CCGGCACA | 0.0728 |
| ATATGGCC | 0.0943 |
| AAAGACTC | 0.069 |
| AAATGGGA | 0.0763 |
| CTGAAAAC | 0.0806 |
| GCGCGGAC | 0.0776 |
| ATTCCATA | 0.0814 |
| ACTGAGAT | 0.0773 |
| CAACCTAG | 0.0722 |
| CACCTCCG | 0.0692 |
| GACACATC | 0.0782 |
| AAGCGATA | 0.0694 |
| TCAGCGGA | 0.0675 |
| ACGTGACA | 0.108 |
| CGAGGGTC | 0.0654 |
| AATGGTGG | 0.0789 |
| ATCGAGCG | 0.0777 |
| GGTACACC | 0.0771 |
| CGACTGCG | 0.0666 |
| ACTGCTAT | 0.0746 |
| ACTGCCGC | 0.0714 |

| Sequence | binding signal (normalized occupancy) |
| --- | --- |
| CCGATCCG | 0.0711 |
| GAGTCGAC | 0.0683 |
| ATGCGACC | 0.079 |
| TCCCCCCA | 0.0805 |
| ACACGGAC | 0.0766 |
| AGGGGAAT | 0.0787 |
| CACCCACA | 0.0789 |
| AACAGCAG | 0.0725 |
| ATCGTCTC | 0.0733 |
| AGAGAAAT | 0.073 |
| AACAACCA | 0.0769 |
| TAAGGCTA | 0.075 |
| AAGGCCGT | 0.067 |
| CTGCACCC | 0.0712 |
| ATTGCAGC | 0.0756 |
| AACAAGTA | 0.074 |
| AATTAGTA | 0.0787 |
| AGGCCTGA | 0.0765 |
| ATATGTCA | 0.0884 |
| ATCTGGAC | 0.0745 |
| CAAATGAG | 0.0793 |
| GTTTGCTA | 0.0768 |
| TCCCCTAA | 0.0765 |
| GCGTCCAC | 0.0736 |
| ACTAAACG | 0.075 |

| Sequence | binding signal (normalized occupancy) |
| --- | --- |
| GAGACCTA | 0.0724 |
| AGCTCTAG | 0.0679 |
| ACCCGAAC | 0.0791 |
| ATCTTCAG | 0.0734 |
| CGAAGCGC | 0.0652 |
| CTCATAAA | 0.081 |
| CCTCTCGC | 0.0693 |
| AGGGCGAA | 0.0715 |
| GACCGAAC | 0.0688 |
| GGTGTGTA | 0.0852 |
| AATAGTTC | 0.0708 |
| CCGCTACA | 0.0757 |
| GAGCGCTA | 0.0668 |
| AGAGCGCG | 0.0713 |
| ATCCCCGA | 0.0778 |
| GTTCGCCA | 0.0711 |
| ATAGTTAG | 0.0705 |
| AGGCCTGG | 0.0702 |
| CAGACACA | 0.0754 |
| TGTGCCAA | 0.0737 |
| CATCGGCA | 0.0713 |
| AAGGAGGA | 0.0699 |
| AACATTTC | 0.0768 |
| ACCTGCAT | 0.0797 |
| AGTGTCTG | 0.0697 |

| Sequence | binding signal (normalized occupancy) |
| --- | --- |
| ACTGCAGT | 0.0691 |
| GGGCAGAA | 0.073 |
| AAGTGAAC | 0.0781 |
| ATCCCCGC | 0.0757 |
| CATATCAG | 0.0835 |
| CGGACGGA | 0.0673 |
| GCTATGAA | 0.0758 |
| ACCAGTCG | 0.073 |
| ACTACAGG | 0.0769 |
| CCTAGCTC | 0.0703 |
| CGGGCTAA | 0.0689 |
| CCCACCGG | 0.0686 |
| ATACCCGC | 0.078 |
| ACTTGGCG | 0.0731 |
| CTCAGCGA | 0.0718 |
| CATTGTGC | 0.08 |
| ACTAAGCC | 0.0709 |
| CTCGATTC | 0.0725 |
| TACGGAAA | 0.0756 |
| TCGATTCA | 0.0762 |
| CAGCGTTC | 0.0716 |
| ATTATTTC | 0.0783 |
| AATTGATG | 0.0797 |
| TAAGCCGA | 0.067 |
| CAGGGCTA | 0.0741 |

| Sequence | binding signal (normalized occupancy) |
| --- | --- |
| CGGGTACC | 0.0725 |
| ACAATCAG | 0.0798 |
| GAAAGCCA | 0.0709 |
| CCGACACC | 0.0792 |
| CCGCGATC | 0.0738 |
| ACGGAATA | 0.0748 |
| CTTGCCCC | 0.0723 |
| GAGGCACC | 0.0768 |
| ACTCCTAC | 0.0716 |
| AACTGCTC | 0.0708 |
| ACACGCTG | 0.108 |
| AATCGCCG | 0.0731 |
| CTATACAA | 0.0801 |
| GACCAATA | 0.0777 |
| ATTATATA | 0.0809 |
| ACGCAACG | 0.0717 |
| TGCTTTAA | 0.0772 |
| GGCCTGAC | 0.0707 |
| CGAGTATC | 0.0727 |
| CTATCGTC | 0.0776 |
| CGATCAGC | 0.0743 |
| CAAGCAAA | 0.0734 |
| AATACGCT | 0.0709 |
| CGGCCTAG | 0.0638 |
| CGAGTCAA | 0.0786 |

| Sequence | binding signal (normalized occupancy) |
| --- | --- |
| GGTCCGCA | 0.0744 |
| CCGGGAGA | 0.0692 |
| AGCGCGTA | 0.0709 |
| CCGGTAAA | 0.0726 |
| CGATAAAG | 0.0738 |
| CCCTGGAC | 0.0729 |
| ACGCGGTA | 0.0786 |
| CGGCAAGC | 0.0718 |
| TGACCCAA | 0.0776 |
| CTGTTTCC | 0.0716 |
| ACTAATCG | 0.0713 |
| GGCTTCTA | 0.0748 |
| GATATATA | 0.0854 |
| GTATTGGA | 0.078 |
| GCTCGTCC | 0.0664 |
| CCTTTGAC | 0.0814 |
| AGGGAGGC | 0.0693 |
| CGGACAAG | 0.0778 |
| AATCCAAG | 0.0718 |
| CCTGAAAG | 0.0724 |
| AATGGCAC | 0.078 |
| TATGTGAA | 0.0871 |
| ACAAGGTA | 0.0767 |
| AACAGTGA | 0.0726 |
| CAGTTCGA | 0.0725 |

| Sequence | binding signal (normalized occupancy) |
| --- | --- |
| ATCAGCTG | 0.0721 |
| ACCTAGCT | 0.0699 |
| CGCCAACC | 0.0678 |
| CACAGGTA | 0.0756 |
| GACTGGCC | 0.0683 |
| TCAATACA | 0.0786 |
| AGCCGCTC | 0.066 |
| CGCTCGAA | 0.0689 |
| GATCCGAA | 0.072 |
| AAGCACCC | 0.0753 |
| AGAGTTTA | 0.0728 |
| AACTACCC | 0.078 |
| CTAATCGA | 0.0701 |
| AGATCATC | 0.0816 |
| AACGGCAC | 0.0761 |
| CGATCTTA | 0.0781 |
| ACGTAAAA | 0.0808 |
| CTGGCAAG | 0.0667 |
| CGTATTAC | 0.0764 |
| GTGCGGTA | 0.0756 |
| AAGTACAT | 0.0812 |
| GAAACAAA | 0.0714 |
| TAATCCTA | 0.0761 |
| GGCGGGGA | 0.0803 |
| GATGTTAA | 0.079 |

| Sequence | binding signal (normalized occupancy) |
| --- | --- |
| CGAGGCCA | 0.0729 |
| CAAAAGAG | 0.0755 |
| CTTCCCCA | 0.0787 |
| AAGGTTCG | 0.0697 |
| AAGTCCGT | 0.071 |
| AGAGGATC | 0.0698 |
| ACTCTATG | 0.0736 |
| ACAGAACT | 0.0718 |
| GCCGAGTA | 0.0689 |
| ATGCTACC | 0.0827 |
| CGTTGCCA | 0.0801 |
| ACTCCACA | 0.0787 |
| CAGTTCGG | 0.0687 |
| ATCTAGTA | 0.0744 |
| CCCGTGAA | 0.0812 |
| AAGGATAA | 0.0776 |
| AAAACAAC | 0.0703 |
| AATAGTTA | 0.078 |
| AATATGGA | 0.0859 |
| ATGTTCAG | 0.0809 |
| AACGCTGA | 0.0816 |
| TTGTTAAA | 0.0761 |
| ACCGTAAC | 0.0752 |
| ACGGATGA | 0.0808 |
| CGCCAACG | 0.075 |

| Sequence | binding signal (normalized occupancy) |
| --- | --- |
| TCGATGAA | 0.075 |
| CGTTCAGC | 0.0709 |
| CTCGACCC | 0.0759 |
| AGATCCTC | 0.0822 |
| TATAGTGA | 0.0805 |
| AACTCGCC | 0.0734 |
| ATCTACGA | 0.0789 |
| CGTTATTC | 0.0797 |
| CCAATACG | 0.0775 |
| CGATGCCG | 0.0689 |
| CCACGTAG | 0.0817 |
| ACCTTCCG | 0.0787 |
| ATCAAGTC | 0.0758 |
| CTAGTCAC | 0.0824 |
| AAATTGGC | 0.0752 |
| CATCTGTA | 0.087 |
| CGGGGACC | 0.0726 |
| CTGGGGCC | 0.0705 |
| AAGCAAAA | 0.075 |
